Publication PMC10874396, “Spatiotemporal and direct capturing global substrates of lysine-modifying enzymes in living cells” (Nature Communications, 2024)

Target: T1, PatZ-L813o-NBAK (E. coli, UniProt P76594 1-886, L813o-NBAK, o-NBAK (o-nitrobenzyl alcohol-derived lysine, unnatural amino acid photo-crosslinker) at 813)
T1 construct: PatZ, protein lysine acetyltransferase of E. coli, amber codon at L813 read as o-NBAK; o-NBAK is a lysine derivative; also called PatZ-L813o-NBAK mutant; o-NBAK encoded enzyme; source: E. coli BL21(DE3), in living cells; also purified (Ni-NTA) for in vitro crosslinking
T1 sequence (looked up): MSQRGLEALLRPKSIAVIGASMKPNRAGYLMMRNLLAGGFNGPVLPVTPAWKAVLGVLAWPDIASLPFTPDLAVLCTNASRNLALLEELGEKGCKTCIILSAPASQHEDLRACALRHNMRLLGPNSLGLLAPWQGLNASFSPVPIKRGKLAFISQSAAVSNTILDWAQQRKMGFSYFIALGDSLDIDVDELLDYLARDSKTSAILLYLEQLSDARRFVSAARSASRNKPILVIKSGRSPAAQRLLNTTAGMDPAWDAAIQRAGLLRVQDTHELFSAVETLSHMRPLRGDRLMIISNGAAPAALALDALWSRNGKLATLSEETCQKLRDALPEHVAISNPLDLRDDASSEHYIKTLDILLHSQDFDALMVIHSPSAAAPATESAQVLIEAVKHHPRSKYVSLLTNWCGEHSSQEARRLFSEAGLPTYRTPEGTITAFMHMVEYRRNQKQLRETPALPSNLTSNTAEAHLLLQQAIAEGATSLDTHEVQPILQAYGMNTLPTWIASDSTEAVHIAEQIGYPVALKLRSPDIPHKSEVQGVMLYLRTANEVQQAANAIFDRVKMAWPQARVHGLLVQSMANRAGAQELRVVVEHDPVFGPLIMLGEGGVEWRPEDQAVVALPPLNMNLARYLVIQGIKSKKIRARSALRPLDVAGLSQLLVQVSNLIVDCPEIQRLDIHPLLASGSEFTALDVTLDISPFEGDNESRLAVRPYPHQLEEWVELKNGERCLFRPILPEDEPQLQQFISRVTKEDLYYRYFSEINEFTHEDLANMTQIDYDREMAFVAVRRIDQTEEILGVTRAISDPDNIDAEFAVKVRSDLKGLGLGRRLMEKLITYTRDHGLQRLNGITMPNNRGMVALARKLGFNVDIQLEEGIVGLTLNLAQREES
Test: cross-linking; in vitro: purified o-NBAK enzyme mixed with purified partner protein in PBS 150 mM NaCl pH 7.5, 365 nm UV 15 min on ice, SDS-PAGE, extra band cut, LC-MS/MS of crosslinked peptides
Conditions: both partners purified

B1: IscU (purified recombinant) (natural protein, E. coli, UniProt P0ACD4 1-128, looked up)
chain: MAYSEKVIDHYENPRNVGSFDNNDENVGSGMVGAPACGDVMKLQIKVNDEGIIEDARFKTYGCGSAIASSSLVTEWVKGKSLDEAQAIKNTDIAEELELPPVKIHCSILAEDAIKAAIADYKSKREAK
notes: IscU, E. coli; may be in the Supplementary Information
binding result: binds
